In the supplement of paper PMC9446081:
In all, about 39,000 compounds went through this assay and about 220 (0.56%) showed activity. The list shows a part of the results.

system: Escherichia coli K-12 BW25113; experiment: relative growth (OD600 normalised to plate interquartile mean) (fraction); higher = less growth inhibition, active = 0.2 or less; settings: 50 µM; LB; incubation time: overnight (16-24 h)
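Also: static incubation at 37 °C against the wild-type strain, values averaged over two biological replicates.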

| Structure (SMILES) | relative growth |
| --- | --- |
| C[C@H]1CN([C@@H](C)CO)C(=O)c2cccc(NC(=O)Nc3ccccc3)c2O[C@@H]1CN(C)CC1CCCCC1 | inactive: 0.909 |
| CC1(C)C(=O)C=CC2(C)C1CC(=O)C1(C)C2CCC2(C)C(c3ccoc3)OC(=O)C3OC321 (configuration not stated) | inactive: 1.11 |
| C[C@@H]1CCCCO[C@@H](CN(C)S(=O)(=O)c2ccccc2)[C@@H](C)CN([C@@H](C)CO)C(=O)c2cc(NC(=O)Nc3cccc4ccccc34)ccc2O1 | inactive: 0.979 |
| C[C@@H]1CN([C@@H](C)CO)C(=O)c2cc(NC(=O)Nc3ccc(F)cc3)ccc2O[C@H]1CN(C)C(=O)Nc1ccc(C(F)(F)F)cc1 | inactive: 1 |
| COc1ccc(NC(=O)N(C)C[C@H]2OCCCC[C@@H](C)Oc3ccc(NC(=O)Nc4ccc(C(F)(F)F)cc4)cc3C(=O)N([C@@H](C)CO)C[C@@H]2C)cc1 | inactive: 1.02 |
| C[C@@H]1CN([C@H](C)CO)C(=O)c2cc(NC(=O)Cn3cnnn3)ccc2O[C@@H]1CN(C)S(=O)(=O)c1ccc(Cl)cc1 | inactive: 1.02 |
| OC[C@H]1O[C@H](O[C@]2(CCl)O[C@H](CCl)[C@@H](O)[C@@H]2O)[C@H](O)[C@@H](O)[C@H]1Cl | inactive: 1.09 |
| COc1cccc(C#Cc2ccc3c(c2)O[C@@H](CN(C)S(=O)(=O)c2ccccc2F)[C@H](C)CN([C@@H](C)CO)S3(=O)=O)c1 | inactive: 1.01 |
| COc1ccc(CN(C)C[C@@H]2Oc3ccc(NC(=O)Nc4ccc(C(F)(F)F)cc4)cc3CC(=O)N([C@@H](C)CO)C[C@@H]2C)cc1 | inactive: 0.979 |
| C[C@@H]1CN([C@@H](C)CO)C(=O)c2cc(NC(=O)Cn3cnnn3)ccc2O[C@@H]1CN(C)S(=O)(=O)c1ccccc1 | inactive: 0.978 |
| CO[C@@H]1CN(C)C(=O)c2cc(NC(=O)CC(F)(F)F)ccc2OC[C@H](C)N(C(=O)C2CCOCC2)C[C@@H]1C | inactive: 1.02 |
| COC(=O)[C@H]1C[C@@]2(C(=O)O)C[C@](C(=O)O)(C[C@@H](C(=O)OC)C2=O)C1=O | inactive: 1 |
| C[C@H](CO)N1C[C@H](C)[C@@H](CN(C)C(=O)C2CCCCC2)Oc2cc(C#CC(C)(C)O)ccc2S1(=O)=O | inactive: 1.01 |
| Cc1ccc(S(=O)(=O)N(C)C[C@H]2OCCCC[C@H](C)Oc3ccc(NS(=O)(=O)c4ccc(Cl)cc4)cc3C(=O)N([C@@H](C)CO)C[C@@H]2C)cc1 | inactive: 0.954 |
| O=c1[nH]c2ccccc2c(O)c1[I+]c1ccccc1 | inactive: 0.758 |
| COc1ccccc1S(=O)(=O)N[C@@H]1CC[C@@H](CCNC(=O)C2CCOCC2)O[C@@H]1CO | inactive: 0.994 |
| C[C@@H]1CN([C@H](C)CO)C(=O)c2cccc(NC(=O)C3CCCCC3)c2O[C@H]1CN(C)Cc1ccc(C(=O)Nc2ccccc2N)cc1 | inactive: 1.01 |
| C[C@@H]1CN([C@@H](C)CO)C(=O)c2cc(NC(=O)Nc3ccc(C(F)(F)F)cc3)ccc2O[C@@H](C)CCCCO[C@@H]1CN(C)C | inactive: 0.938 |
| C[C@H](CO)N1C[C@H](C)[C@@H](CN(C)C(=O)Nc2ccc(C(F)(F)F)cc2)Oc2c(NS(=O)(=O)c3ccc(F)cc3)cccc2C1=O | inactive: 0.982 |

| Structure (SMILES) | relative growth |
| --- | --- |
| COc1ccc(S(=O)(=O)N(C)C[C@H]2Oc3ncc(C#CC4(O)CCCC4)cc3C(=O)N([C@H](C)CO)C[C@H]2C)cc1 | inactive: 1.01 |
| CC(C)NC(=O)Nc1ccc2c(c1)C(=O)N([C@H](C)CO)C[C@H](C)[C@H](CN(C)Cc1ccc3c(c1)OCO3)O2 | inactive: 1.03 |
| C[C@@H]1CN([C@@H](C)CO)C(=O)c2cccc(NC(=O)c3nc4ccccc4s3)c2O[C@@H]1CN(C)Cc1ccc(C(=O)Nc2ccccc2N)cc1 | inactive: 1.01 |
| Cc1cc(C)n([C@@H](C)CN)n1 | inactive: 0.993 |
| C[C@H]1CN([C@@H](C)CO)C(=O)c2cccc(NS(=O)(=O)c3cn(C)cn3)c2O[C@H]1CN(C)S(=O)(=O)c1ccccc1 | inactive: 0.997 |
| Cc1ccc(S(=O)(=O)N(C)C[C@H]2Oc3ccc(NS(=O)(=O)c4ccc(F)cc4)cc3CC(=O)N([C@H](C)CO)C[C@@H]2C)cc1 | inactive: 1.02 |
| Cc1ccc(S(=O)(=O)N(C)C[C@@H]2Oc3c(NS(C)(=O)=O)cccc3C(=O)N([C@H](C)CO)C[C@@H]2C)cc1 | inactive: 0.998 |
| C[C@H](CO)N1C[C@H](C)[C@@H](CN(C)Cc2ccncc2)OCCCC[C@H](C)Oc2ccc(NC(=O)Nc3ccc(F)cc3)cc2C1=O | inactive: 0.992 |
| C[C@@H]1CCCCO[C@@H](CN(C)S(=O)(=O)c2cccs2)[C@H](C)CN([C@@H](C)CO)C(=O)c2cc(NC(=O)Nc3ccc4c(c3)OCO4)ccc2O1 | inactive: 1.02 |
| CC(C)(C)c1cc(C(=O)NN)no1 | inactive: 0.904 |
| C[C@@H]1CN([C@@H](C)CO)C(=O)c2cc(NC(=O)Nc3ccccc3)ccc2O[C@@H](C)CCCCO[C@H]1CN(C)C(=O)C1CCCCC1 | inactive: 1 |
| C[C@@H]1CN([C@@H](C)CO)C(=O)CCCn2cc(nn2)CO[C@@H]1CN(C)C(=O)Nc1ccc(C(C)(C)C)cc1 | inactive: 0.966 |
| C[C@@H]1CCCCO[C@@H](CN(C)Cc2ccncc2)[C@H](C)CN([C@@H](C)CO)C(=O)c2cc(NC(=O)Nc3cccc4ccccc34)ccc2O1 | inactive: 1.04 |
| CO[C@@H]1CN(C)C(=O)c2cc(NC(=O)C3CCC3)ccc2OC[C@@H](C)N(C(=O)Nc2ccc(C(F)(F)F)cc2)C[C@H]1C | inactive: 1 |
| COc1ccccc1-c1cnc2c(c1)C(=O)N([C@H](C)CO)C[C@@H](C)[C@@H](CN(C)C(=O)c1ccncc1)O2 | inactive: 1.01 |
| C[C@H]1CN([C@@H](C)CO)S(=O)(=O)c2ccc(-c3cccc(C#N)c3)cc2O[C@@H]1CN(C)C(=O)c1cccnc1 | inactive: 1.02 |
| O=C(C1CCCCC1)N1CC(=O)N2CCc3ccccc3C2C1 (configuration not stated) | inactive: 1.09 |
| COCCNC(=O)NC(=O)COC(=O)c1cccn1C | inactive: 0.992 |
| C[C@H](CO)N1C[C@H](C)[C@H](CN(C)S(=O)(=O)c2ccc(Cl)cc2)Oc2ccc(NS(C)(=O)=O)cc2CC1=O | inactive: 1.04 |

| Structure (SMILES) | relative growth |
| --- | --- |
| CC(C)NC(=O)N(C)C[C@@H]1Oc2ccc(NC(=O)CCN3CCOCC3)cc2CC(=O)N([C@@H](C)CO)C[C@H]1C | inactive: 0.994 |
| CCCCCCCCCC(=O)N[C@@H](Cc1c[nH]c2ccccc12)C(=O)N[C@H](CC(N)=O)C(=O)N[C@@H](CC(=O)O)C(=O)N[C@@H]1C(=O)NCC(=O)N[C@@H](CCCN)C(=O)N[C@@H](CC(=O)O)C(=O)N[C@H](C)C(=O)N[C@@H](CC(=O)O)C(=O)NCC(=O)N[C@H](CO)C(=O)N[C@@H]([C@H](C)CC(=O)O)C(=O)N[C@@H](CC(=O)c2ccccc2N)C(=O)O[C@@H]1C | inactive: 0.952 |
| C[C@@H]1CN([C@@H](C)CO)C(=O)c2cc(-c3cccc(C(=O)N(C)C)c3)cnc2O[C@@H]1CN(C)S(=O)(=O)c1cccc(F)c1 | inactive: 0.998 |
| C[C@H]1CN([C@@H](C)CO)C(=O)c2cc(-c3cccnc3)cnc2O[C@@H]1CN(C)C(=O)Nc1ccc2c(c1)OCO2 | inactive: 1 |
| C[C@H](CO)N1C[C@H](C)[C@@H](CN(C)C(=O)C2CCOCC2)Oc2ncc(C#CCc3ccccc3)cc2C1=O | inactive: 0.994 |
| COCC#Cc1ccc2c(c1)O[C@@H](CN(C)C(=O)C1CCOCC1)[C@@H](C)CN([C@H](C)CO)S2(=O)=O | inactive: 0.989 |
| C[C@H](CO)N1C[C@H](C)[C@H](CN(C)S(=O)(=O)c2ccc(Cl)cc2)Oc2c(NC(=O)C3CC3)cccc2C1=O | inactive: 0.991 |
| Cc1[nH]c(=O)[nH]c(=O)c1S(=O)(=O)N1CCC(C(=O)NCCC(C)C)CC1 | inactive: 0.982 |
| NC(=O)c1ccccc1C(N)=O | inactive: 0.986 |
| C[C@H](CO)N1C[C@H](C)[C@@H](CN(C)S(=O)(=O)c2cn(C)cn2)Oc2ccc(NC(=O)Cc3ccccc3)cc2C1=O | inactive: 0.975 |
| C[C@@H]1CN([C@@H](C)CO)C(=O)c2cccc(NC(=O)C3CCOCC3)c2O[C@H]1CN(C)S(=O)(=O)c1ccc(F)cc1 | inactive: 1.03 |
| C[C@H]1CN([C@@H](C)CO)C(=O)c2cccc(NC(=O)C3CC3)c2O[C@@H]1CN(C)Cc1ccc(Oc2ccccc2)cc1 | inactive: 1.02 |
| C[C@H](CO)N1C[C@H](C)[C@@H](CN(C)Cc2ccc(Oc3ccccc3)cc2)Oc2c(NS(=O)(=O)c3ccc(Cl)cc3)cccc2C1=O | inactive: 1.03 |
| CO[C@@H]1CN(C)C(=O)c2ccc(NS(=O)(=O)CC(F)(F)F)cc2OC[C@H](C)N(Cc2nccs2)C[C@@H]1C | inactive: 0.983 |
| COc1ccc(NC(=O)N(C)C[C@@H]2Oc3ccc(NC(=O)CCCCCC(=O)Nc4ccccc4N)cc3C(=O)N([C@@H](C)CO)C[C@@H]2C)cc1 | inactive: 0.957 |
| Cc1noc(C)c1S(=O)(=O)Nc1ccc2c(c1)C(=O)N([C@H](C)CO)C[C@H](C)[C@@H](CN(C)S(=O)(=O)c1cccs1)O2 | inactive: 1 |
| COc1ccc(NC(=O)Nc2ccc3c(c2)C(=O)N([C@H](C)CO)C[C@H](C)[C@H](CN(C)C(=O)Cc2ccccc2)OCCCC[C@@H](C)O3)cc1 | inactive: 1.01 |
| COCC#Cc1cnc2c(c1)C(=O)N([C@H](C)CO)C[C@@H](C)[C@@H](CN(C)C(C)=O)O2 | inactive: 0.998 |
| Cc1ccc(-c2cnc3c(c2)C(=O)N([C@H](C)CO)C[C@H](C)[C@@H](CN(C)C(=O)Cc2cccnc2)O3)cc1 | inactive: 0.998 |
